Laboratory results as given in the supplement of paper PMC4967469.
By IC50 is meant the dose at which the fit gives 50% viability; a limit (>, <) means that the fit lies beyond the doses tested. AUC is the area under the same curve over the 256-fold range up to the top dose, as a fraction; values near 1 show little effect. For part of these data: Any top dose called inferred was calculated from the reported fits. For part of these data: Drugs with an entry number were screened twice under separate entries, and the two screens often disagree.

Columns and labels:
Experiment in all cases: Viability of human cancer cell lines after 72 h of drug (GDSC screen)
Cyclopamine = compound: CC1=C2C[C@H]3[C@@H](CC=C4C[C@@H](O)CC[C@@]43C)[C@@H]2CC[C@]12O[C@@H]1C[C@H](C)CN[C@H]1[C@H]2C [Cyclopamine]; conditions: top dose 16 µM; top dose inferred
Description: (§1)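 Human cancer cell lines in 384-well plates, medium with 10% serum, drug for 72 h over a 256-fold dose range (nine 2-fold or five 4-fold steps up to the top dose). Adherent lines were fixed and stained with the nucleic acid dye Syto60, suspension lines read with resazurin; signal relative to control wells, capped at 0 and 100%. One two-parameter sigmoid per drug and line, fitted in a mixed model over all curves with the slope shared within a line.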

NSC-207895 = compound: CN1CCN(c2ccc([N+](=O)[O-])c3no[n+]([O-])c23)CC1 [NSC-207895]; conditions: top dose 20 µM; top dose inferred
Description: as §1

FTI-277 = compound: COC(=O)[C@H](CCSC)NC(=O)c1ccc(NC[C@@H](N)CS)cc1-c1ccccc1 [FTI-277]; conditions: top dose 1.024 µM; top dose inferred
Description: as §1

YM155 = compound: COCC[n+]1c2c(n(Cc3cnccn3)c1C)C(=O)c1ccccc1C2=O [YM155]; conditions: top dose 5.12 µM
Description: as §1

NVP-TAE684 = compound: COc1cc(N2CCC(N3CCN(C)CC3)CC2)ccc1Nc1ncc(Cl)c(Nc2ccccc2S(=O)(=O)C(C)C)n1 [NVP-TAE684]; conditions: top dose 2 µM
Description: as §1

OSI-906 = compound: C[C@]1(O)C[C@@H](c2nc(-c3ccc4ccc(-c5ccccc5)nc4c3)c3c(N)nccn32)C1 [OSI-906]; conditions: top dose 2.56 µM; top dose inferred
Description: as §1

PHA-665752 = compound: Cc1[nH]c(/C=C2\C(=O)Nc3ccc(S(=O)(=O)Cc4c(Cl)cccc4Cl)cc32)c(C)c1C(=O)N1CCC[C@@H]1CN1CCCC1 [PHA-665752]; conditions: top dose 2 µM
Description: as §1

SB-715992 = compound: Cc1ccc(C(=O)N(CCCN)[C@@H](c2nc3cc(Cl)ccc3c(=O)n2Cc2ccccc2)C(C)C)cc1 [SB-715992]; conditions: top dose 0.128 µM; top dose inferred
Description: as §1

JQ1 = compound: Cc1sc2c(c1C)C(c1ccc(Cl)cc1)=N[C@@H](CC(=O)OC(C)(C)C)c1nnc(C)n1-2 [JQ1]
Description: as §1

Belinostat = compound: O=C(/C=C/c1cccc(S(=O)(=O)Nc2ccccc2)c1)NO [Belinostat]; conditions: top dose 20 µM; top dose inferred
Description: as §1

CGP-60474 = compound: OCCCNc1cc(-c2ccnc(Nc3cccc(Cl)c3)n2)ccn1 [CGP-60474]; conditions: top dose 0.256 µM; top dose inferred
Description: as §1

JNJ-26854165 = compound: c1ccc2c(CCNc3ccc(Nc4ccncc4)cc3)c[nH]c2c1 [JNJ-26854165]; conditions: top dose 10 µM
Description: as §1

AMG-706 = compound: CC1(C)CNc2cc(NC(=O)c3cccnc3NCc3ccncc3)ccc21 [AMG-706]; conditions: top dose 2 µM; top dose inferred
Description: as §1

JNK Inhibitor VIII = compound: CCOc1nc(NC(=O)Cc2cc(OC)ccc2OC)cc(N)c1C#N [JNK Inhibitor VIII]; conditions: top dose 10 µM; top dose inferred
Description: as §1

Docetaxel = compound: CC(=O)O[C@@]12CO[C@@H]1C[C@H](O)[C@@]1(C)C(=O)[C@H](O)C3=C(C)[C@@H](OC(=O)[C@H](O)[C@@H](NC(=O)OC(C)(C)C)c4ccccc4)C[C@@](O)([C@@H](OC(=O)c4ccccc4)[C@H]21)C3(C)C [Docetaxel]; conditions: top dose 0.0125 µM
Description: as §1

[1] = top dose 1 µM, screen: GDSC drug entry 1218, top dose inferred
[2] = top dose 2.56 µM, screen: GDSC drug entry 163

Cell Line	AUC (Cyclopamine)	IC50 (Cyclopamine) [nM]	AUC (NSC-207895)	IC50 (NSC-207895) [nM]	AUC (FTI-277)	IC50 (FTI-277) [nM]	AUC (YM155)	IC50 (YM155) [nM]	AUC (NVP-TAE684)	IC50 (NVP-TAE684) [nM]	AUC (OSI-906)	IC50 (OSI-906) [nM]	AUC (PHA-665752)	IC50 (PHA-665752) [nM]	AUC (SB-715992)	IC50 (SB-715992) [nM]	AUC (JQ1; [1])	IC50 (JQ1; [1]) [nM]	AUC (JQ1; [2])	IC50 (JQ1; [2]) [nM]	AUC (Belinostat)	IC50 (Belinostat) [nM]	AUC (CGP-60474)	IC50 (CGP-60474) [nM]	AUC (JNJ-26854165)	IC50 (JNJ-26854165) [nM]	AUC (AMG-706)	IC50 (AMG-706) [nM]	AUC (JNK Inhibitor VIII)	IC50 (JNK Inhibitor VIII) [nM]	AUC (Docetaxel)	IC50 (Docetaxel) [nM]
LB2241-RCC (kidney, adherent)	0.929	> 16000	0.966	> 20000	0.972	> 1020	0.395	159	0.757	762	0.919	> 2560	0.539	162	0.983	> 128	0.98	> 1000	0.839	2060	0.633	3060	0.976	> 256	0.888	> 10000	–	–	–	–	–	–
SH-4 (melanoma, adherent)	0.956	> 16000	0.964	> 20000	0.969	> 1020	0.288	57.1	0.8	1680	0.915	> 2560	0.968	> 2000	0.957	> 128	0.97	> 1000	0.506	168	0.697	6130	0.796	207	0.851	> 10000	0.973	> 2000	0.975	> 10000	–	–
NTERA-2 cl.D1 (testis, adherent)	0.869	14600	0.587	2160	0.972	> 1020	0.024	< 20	0.63	284	0.852	1950	0.972	> 2000	0.978	> 128	0.971	> 1000	0.382	76.1	0.341	453	0.647	40.7	0.89	> 10000	–	–	–	–	–	–
RS4-11 (leukaemia, suspension)	0.925	> 16000	0.786	7840	0.975	> 1020	0.02	< 20	0.94	> 2000	0.592	280	0.943	> 2000	0.554	11.1	–	–	–	–	0.168	138	0.732	68.2	0.798	4290	0.989	> 2000	0.986	> 10000	–	–
COLO-824 (breast, adherent)	0.986	> 16000	0.912	> 20000	0.982	> 1020	0.028	< 20	0.943	> 2000	0.916	> 2560	0.975	> 2000	0.936	> 128	0.987	> 1000	0.874	> 2560	0.502	1270	0.907	> 256	–	–	0.988	> 2000	0.988	> 10000	–	–
SKM-1 (haematopoietic neoplasm, suspension)	0.984	> 16000	–	–	–	–	–	–	0.95	> 2000	–	–	0.972	> 2000	–	–	0.979	> 1000	–	–	–	–	0.96	> 256	0.735	3180	0.983	> 2000	0.981	> 10000	–	–
IST-SL1 (small cell lung carcinoma, semi-adherent)	0.974	> 16000	0.72	5360	0.981	> 1020	0.075	< 20	–	–	0.979	> 2560	0.975	> 2000	0.75	42.8	0.845	751	0.678	511	0.154	102	0.833	172	0.871	9920	0.978	> 2000	0.979	> 10000	0.682	2.56
ES-2 (ovary, adherent)	0.963	> 16000	0.975	> 20000	0.991	> 1020	0.034	< 20	–	–	0.991	> 2560	0.99	> 2000	0.93	> 128	0.99	> 1000	0.991	> 2560	0.25	267	0.861	176	0.877	7990	0.991	> 2000	0.98	> 10000	0.729	3.18
COR-L279 (small cell lung carcinoma, suspension)	0.984	> 16000	0.941	> 20000	0.989	> 1020	0.263	73.6	–	–	0.986	> 2560	0.99	> 2000	0.776	45.6	0.911	> 1000	0.801	1090	0.41	731	0.83	137	0.979	> 10000	0.991	> 2000	0.973	> 10000	0.959	> 12.5
RL (B-cell lymphoma, suspension)	0.984	> 16000	0.953	> 20000	0.98	> 1020	0.027	< 20	–	–	0.99	> 2560	0.975	> 2000	0.819	65.4	0.985	> 1000	0.877	2210	0.282	321	0.99	> 256	0.979	> 10000	0.99	> 2000	0.989	> 10000	0.812	6
KINGS-1 (glioma, adherent)	0.951	> 16000	0.929	> 20000	0.964	> 1020	0.088	< 20	–	–	0.93	> 2560	0.567	204	0.885	> 128	0.958	> 1000	0.957	> 2560	0.399	594	0.757	120	0.857	> 10000	0.912	> 2000	0.971	> 10000	0.57	1.3
JURL-MK1 (chronic myeloid leukaemia, suspension)	0.978	> 16000	0.972	> 20000	0.986	> 1020	0.401	171	0.858	1630	0.97	> 2560	0.975	> 2000	0.759	44.5	0.956	> 1000	0.815	1400	0.39	623	–	–	0.769	3770	0.987	> 2000	0.986	> 10000	0.883	> 12.5
KALS-1 (glioma, adherent)	0.929	> 16000	0.875	> 20000	0.966	> 1020	0.045	< 20	0.802	1440	0.93	> 2560	0.967	> 2000	0.735	49	0.944	> 1000	0.646	472	0.568	2050	0.661	53.2	0.898	> 10000	–	–	–	–	–	–
CPC-N (small cell lung carcinoma, suspension)	–	–	0.744	6730	0.985	> 1020	0.029	< 20	0.786	952	0.825	1720	0.972	> 2000	0.868	> 128	0.812	597	0.935	> 2560	0.384	579	0.928	> 256	0.901	> 10000	0.983	> 2000	0.985	> 10000	0.859	12
JVM-2 (lymphoid neoplasm, suspension)	0.979	> 16000	0.953	> 20000	0.97	> 1020	0.327	93.9	–	–	0.981	> 2560	0.978	> 2000	0.967	> 128	0.673	214	0.88	> 2560	0.631	3140	0.879	> 256	0.769	4620	0.978	> 2000	0.982	> 10000	0.957	> 12.5
SW872 (soft tissue, adherent)	0.986	> 16000	0.978	> 20000	0.986	> 1020	0.565	472	0.741	562	0.979	> 2560	0.98	> 2000	0.869	99.7	0.988	> 1000	0.632	356	0.365	551	0.571	24.5	0.904	> 10000	–	–	–	–	–	–
NCI-H1770 (non-small cell lung carcinoma, suspension)	0.981	> 16000	0.991	> 20000	0.988	> 1020	0.273	79.8	–	–	0.805	1100	0.907	> 2000	0.917	> 128	0.992	> 1000	0.765	829	0.469	1040	0.891	234	0.992	> 10000	0.992	> 2000	0.991	> 10000	0.963	> 12.5
